Measurements reported in paper PMC7532663, “Pharmacological inhibition of mTORC1 increases CCKBR-specific tumor uptake of radiolabeled minigastrin analogue [^177Lu]Lu-PP-F11N” (Theranostics, 2020).

Key:
[1] = test system: A431/CCKBR-tumor bearing nude mice; assay: SPECT/CT imaging and quantification; settings: 2 h after i.v. injection, 4 tumors per group
Description: For SPECT/CT imaging, [^177Lu]Lu-PP-F11N was purified by HPLC and 0.2 nmol of radiolabeled [^177Lu]Lu-PP-F11N was diluted in PBS (10 MBq in 100 µl). Two hours after i.v. injection, mice were sacrificed and subjected to 10 min X-ray computed tomography (CT) followed by 5 h single-photon emission computed tomography (SPECT) using a multipinhole small-animal NanoSPECT/CT camera (Mediso Medical Imaging Systems). Image reconstruction and quantification was accomplished by using connecting thresholding and Otsu method (VivoQuant 3.0 Patch1).

[2] = test system: A431/CCKBR cells; settings: for membrane-bound activity of [177Lu]Lu-PP-F11N: 100 nM RAD001 or 10 mM metformin vs control
[3] = test system: A431/CCKBR-tumor bearing nude mice; assay: Biodistribution of [177Lu]Lu-PP-F11N; settings: for tumor uptake of [177Lu]Lu-PP-F11N, ratio [treatment/Control]: 5 daily i.p. doses, RAD001 3 mg/kg or metformin 200 mg/kg
[4] = test system: ERK1/2 phosphorylation; assay: WB analysis of phospho-ERK1/2; format: cell-based, human
Description: Antibodies against phospho-S6 at S235/S236 (D57.2.2F), ERK1/2 (9102), phospho-ERK1/2 (T202/Y204), GAPDH (14C10) and HA-Tag (C29F4) were obtained from Cell Signaling Technology, whereas the anti-CCKBR (ab77077) was from Abcam. Cells were homogenized in lysis buffer (50 mM Tris-HCl pH 7.5, 150 mM NaCl, 1% Triton X, 0.1% SDS supplemented with 1 mM sodium orthovanadate, 1 mM NaF and protease inhibitor cocktail (Roche)). 50 μg of total protein lysates were separated by SDS-PAGE and transferred to PVDF membranes (Millipore) by electroblotting. Membranes were blocked with 5% skim milk in TBST (0.1% Tween 20) for 1 h, and incubated with 2% BSA in TBST overnight with the primary antibody followed by 2 h incubation with HRP-conjugated secondary antibody. Signals were produced by using a chemiluminescence reagent (ECL) and acquired by ImageQuant RT ECL Imager (GE Healthcare). Prior to CCKBR detection by WB, protein lysates were subjected to deglycosylation. Briefly, 18 μL of total protein lysates (50 µg) were mixed with 2 μL of 10× denaturing buffer (5% SDS, 0.4 M DTT) and incubated for 10 min at RT. Next, 4 μL of 10× Glycobuffer (0.5 M sodium phosphate, pH 7.5), 4 μL of 10% Tween-20 and 10 μL of water were added. Finally, 2 μL of PNGase F (Sigma) was added and the reaction was carried out for 16 h at 37°C.

[5] = test system: β-arrestin-1 recruitment to CCKBR; assay: Split luciferase arrestin recruitment assay
Description: (§1) Cells at 70-90% confluence on the 6-well plate were transfected with 2 μg per well of each pSI-AGR10 plasmid, [25] with subcloned human 114-βArrestin-1, 114-βArrestin-2, 11S-CAAX and CCKBR by using Lipofectamine 3000 according to the manufacturer's recommendations. Twenty-four h after transfection, 100,000 cells per well were plated into a 96-well plate (Perkin Elmer) and the cells were treated with RAD001 for 20 h. On the next day, the medium was exchanged to DMEM w/o phenol red (Bioconcept), supplemented with 20mM HEPES pH 7.0, 1% furimazine and 19% LCS dilution buffer (Nano-Glo® Live Cell Assay System, Promega) and a white cover was attached to the transparent bottom of the 96-well plate. Cells were stimulated with 1 µM of PP-F11N and the luminescence was measured using a PHERAstar FSX (BMG Labtech). After the recruitment assay, Hoechst fluorescence was measured to control cell number. Briefly, the microplates were frozen at -80°C for 1 h and 100 µl of dH2O was added to each well followed by 1 h incubation at 37°C. Then, the plates were placed at -80°C until frozen and thawed to RT. Next, per each well 100 µL of aqueous Hoechst 33258 (Sigma) diluted to a final concentration of 5 ug/ml in TNE buffer (10 mM Tris, 2 M NaCl, 1 mM EDTA, pH 7.4) was added and the fluorescence was measured using optic filters centred on 360 and 460 nm for excitation and emission, respectively.

[6] = test system: β-arrestin-2 recruitment to CCKBR; assay: Split luciferase arrestin recruitment assay
Description: as §1

[7] = test system: A431/CCKBR cells; assay: Kinase inhibitor library screen: [177Lu]Lu-PP-F11N cell uptake; settings: 10 μM
[8] = treated mice, 5 days, 4 h post injection, mean

SMILES: CO[C@H]1C[C@@H]2CC[C@@H](C)[C@@](O)(O2)C(=O)C(=O)N2CCCC[C@H]2C(=O)O[C@H]([C@H](C)C[C@@H]2CC[C@@H](OCCO)[C@H](OC)C2)CC(=O)[C@H](C)/C=C(\C)[C@@H](O)[C@@H](OC)C(=O)[C@H](C)C[C@H](C)/C=C/C=C/C=C/1C [RAD001, Everolimus]
- ratio [treatment/Control] of the average concentration of [177Lu]Lu-PP-F11N in tumors [1]: 3.11
- ratio [treatment/Control] of the maximum concentration of [177Lu]Lu-PP-F11N in tumors [1]: 3.17
- membrane-bound activity of [177Lu]Lu-PP-F11N [2]: no significant difference
- uptake of [177Lu]Lu-PP-F11N ([2]; 20 h incubation with 50, 100 and 200 nM RAD001): increased uptake
- tumor uptake of [177Lu]Lu-PP-F11N, ratio [RAD001/Control] ([3]; 3 daily RAD001 doses, 3 mg/kg i.p., 4 h p.i.): 1.56
- tumor uptake of [177Lu]Lu-PP-F11N, ratio [treatment/Control] ([3]; 4 h p.i.): 1.79
- Uptake [% i.A./g] of [177Lu]Lu-PP-F11N, Tumor ([3]; treated mice (RAD001 3 mg/kg or metformin 200 mg/kg i.p. daily 5 days), 4 h post injection, mean): 19.56 % i.A./g
- Uptake [% i.A./g] of [177Lu]Lu-PP-F11N, Blood [3, 8]: 0.04 % i.A./g
- Uptake [% i.A./g] of [177Lu]Lu-PP-F11N, Bone [3, 8]: 0.19 % i.A./g
- Uptake [% i.A./g] of [177Lu]Lu-PP-F11N, Brain [3, 8]: 0.008 % i.A./g
- Uptake [% i.A./g] of [177Lu]Lu-PP-F11N, Heart [3, 8]: 0.031 % i.A./g
- Uptake [% i.A./g] of [177Lu]Lu-PP-F11N, Intestines [3, 8]: 0.11 % i.A./g
- Uptake [% i.A./g] of [177Lu]Lu-PP-F11N, Kidney [3, 8]: 3.22 % i.A./g
- Uptake [% i.A./g] of [177Lu]Lu-PP-F11N, Liver [3, 8]: 0.17 % i.A./g
- Uptake [% i.A./g] of [177Lu]Lu-PP-F11N, Lung [3, 8]: 0.06 % i.A./g
- Uptake [% i.A./g] of [177Lu]Lu-PP-F11N, Muscle [3, 8]: 0.05 % i.A./g
- Uptake [% i.A./g] of [177Lu]Lu-PP-F11N, Pancreas [3, 8]: 0.17 % i.A./g
- Uptake [% i.A./g] of [177Lu]Lu-PP-F11N, Spleen [3, 8]: 0.08 % i.A./g
- Uptake [% i.A./g] of [177Lu]Lu-PP-F11N, Stomach [3, 8]: 0.80 % i.A./g

- Uptake [% i.A./g] of [177Lu]Lu-PP-F11N, Bone [3, 8]: 0.25 % i.A./g
- Uptake [% i.A./g] of [177Lu]Lu-PP-F11N, Brain [3, 8]: 0.007 % i.A./g
- Uptake [% i.A./g] of [177Lu]Lu-PP-F11N, Heart [3, 8]: 0.04 % i.A./g
- Uptake [% i.A./g] of [177Lu]Lu-PP-F11N, Intestines [3, 8]: 0.11 % i.A./g
- Uptake [% i.A./g] of [177Lu]Lu-PP-F11N, Kidney [3, 8]: 3.19 % i.A./g
- Uptake [% i.A./g] of [177Lu]Lu-PP-F11N, Liver [3, 8]: 0.16 % i.A./g
SMILES: CN(C)C(=N)N=C(N)N [Metformin, metformin]
- ratio [treatment/Control] of the average concentration of [177Lu]Lu-PP-F11N in tumors [1]: 1.03
- ratio [treatment/Control] of the maximum concentration of [177Lu]Lu-PP-F11N in tumors [1]: 1.17
- membrane-bound activity of [177Lu]Lu-PP-F11N [2]: no significant difference
- tumor uptake of [177Lu]Lu-PP-F11N, ratio [treatment/Control] ([3]; 4 h p.i.): 1.14
- tumor uptake of [177Lu]Lu-PP-F11N, ratio [treatment/Control] ([3]; 4 h p.i., listed as metformin): did not show a significant difference

SMILES: CCCC[C@H](NC(=O)[C@H](Cc1c[nH]c2ccccc12)NC(=O)CNC(=O)[C@H](Cc1ccc(O)cc1)NC(=O)[C@H](C)NC(=O)[C@@H](CCC(=O)O)NC(=O)[C@@H](CCC(=O)O)NC(=O)[C@@H](CCC(=O)O)NC(=O)[C@@H](CCC(=O)O)NC(=O)[C@@H](CCC(=O)O)NC(=O)[C@@H](CCC(=O)O)NC(=O)CN1CCN(CC(=O)O)CCN(CC(=O)O)CCN(CC(=O)O)CC1)C(=O)N[C@@H](CC(=O)O)C(=O)N[C@@H](Cc1ccccc1)C(N)=O [PP-F11N, DOTA-(DGlu)6-Ala-Tyr-Gly-Trp-Nle-Asp-Phe-NH2]
- phosphorylation of ERK1/2 (WB) [4]: increased phosphorylation
- recruitment of β-arrestin-1 to CCKBR [5]: triggered recruitment
- recruitment of β-arrestin-2 to CCKBR [6]: stronger interaction

SMILES: O=C(O)c1ccc2nc(-c3ccccc3)c(-c3ccccc3)nc2c1 [BML-257]
- enhancement of [177Lu]Lu-PP-F11N cell uptake compared to untreated control cells [7]: 24-26%

SMILES: CO[C@H]1C[C@@H]2CC[C@@H](C)[C@@](O)(O2)C(=O)C(=O)N2CCCC[C@H]2C(=O)O[C@H]([C@H](C)C[C@@H]2CC[C@@H](O)[C@H](OC)C2)CC(=O)[C@H](C)/C=C(\C)[C@@H](O)[C@@H](OC)C(=O)[C@H](C)C[C@H](C)/C=C/C=C/C=C/1C [Rapamycin]
- enhancement of [177Lu]Lu-PP-F11N cell uptake compared to untreated control cells [7]: 24-26%

One block for each molecule: values may come before it.
